# Measurements reported in the supplement of paper PMC8728848.
# The list shows a part of the results.
# B1: CLEC5A (Homo sapiens), Q9NY25 (protein)
# chain: MNWHMIISGLIVVVLKVVGMTLFLLYFPQIFNKSNDGFTTTRSYGTVSQIFGSSSPSPNGFITTRSYGTVCPKDWEFYQARCFFLSTSESSWNESRDFCKGKGSTLAIVNTPEKLKFLQDITDAEKYFIGLIYHREEKRWRWINNSVFNGNVTNQNQNFNCATIGLTKTFDAASCDISYRRICEKNAK
# Key:
# Assay in all cases: glycan array binding signal (z-score within array); higher = stronger binding
# Conditions in all cases: glycan notation: IUPAC condensed, linker removed
# GalNAc(b1-4)Gal(b1-4)Glc = molecular target: GalNAc(b1-4)Gal(b1-4)Glc
# How it was run: (§1)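 From the Consortium for Functional Glycomics database, 3228 arrays were curated, keeping only those whose protein sequence was available. Binding is given as a within-array Z-score averaged across arrays sharing a protein sequence and across linkers. Negative Z-scores can be read as non-binding.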
# [1] = molecular target: GalNAc(b1-4)Gal3S(b1-4)Glc
# How it was run: as §1
# GalNAc(b1-4)GlcNAc = molecular target: GalNAc(b1-4)GlcNAc
# How it was run: as §1
# [2] = molecular target: GalNAc(b1-4)GlcNAc(b1-2)Man
# How it was run: as §1
# [3] = molecular target: GalNAc(b1-4)GlcNAc(b1-2)Man(a1-3)[GalNAc(b1-4)GlcNAc(b1-2)Man(a1-6)]Man(b1-4)GlcNAc(b1-4)GlcNAc
# How it was run: as §1
# [4] = molecular target: GalNAc(b1-4)GlcNAc(b1-3)GalNAc(b1-4)GlcNAc
# How it was run: as §1
# GalNAc(b1-4)GlcNAc6S = molecular target: GalNAc(b1-4)GlcNAc6S
# How it was run: as §1
# [5] = molecular target: GalNAc(b1-4)[Neu5Ac(a2-6)]Gal(b1-4)Glc
# How it was run: as §1
# GalNAc(b1-6)GalNAc = molecular target: GalNAc(b1-6)GalNAc
# How it was run: as §1
# [6] = molecular target: GalNAc3S(b1-4)Gal3S(b1-4)Glc
# How it was run: as §1
# GalNAc3S(b1-4)GlcNAc = molecular target: GalNAc3S(b1-4)GlcNAc
# How it was run: as §1
# GalNAc3S(b1-4)GlcNAc3S = molecular target: GalNAc3S(b1-4)GlcNAc3S
# How it was run: as §1
# [7] = molecular target: GalNAc3S(b1-4)[Fuc(a1-3)]GlcNAc
# How it was run: as §1
# GalNAc4S6S(b1-4)GlcNAc = molecular target: GalNAc4S6S(b1-4)GlcNAc
# How it was run: as §1
# GalNAc6S(b1-4)GlcNAc = molecular target: GalNAc6S(b1-4)GlcNAc
# How it was run: as §1
# Glc(a1-2)Glc = molecular target: Glc(a1-2)Glc
# How it was run: as §1
# [8] = molecular target: Glc(a1-2)Glc(a1-3)Glc(a1-3)Man(a1-2)Man(a1-2)Man(a1-3)[Man(a1-3)[Man(a1-6)]Man(a1-6)]Man(b1-4)GlcNAc
# How it was run: as §1
# Glc(a1-3)Glc = molecular target: Glc(a1-3)Glc
# How it was run: as §1
# [9] = molecular target: Glc(a1-3)Glc(a1-3)Man(a1-2)Man(a1-2)Man(a1-3)[Man(a1-3)[Man(a1-6)]Man(a1-6)]Man(b1-4)GlcNAc
# How it was run: as §1
# [10] = molecular target: Glc(a1-3)Man(a1-2)Man(a1-2)Man(a1-3)[Man(a1-2)Man(a1-3)[Man(a1-2)Man(a1-6)]Man(a1-6)]Man(b1-4)GlcNAc(b1-4)GlcNAc
# How it was run: as §1
# Glc(a1-4)Glc = molecular target: Glc(a1-4)Glc
# How it was run: as §1
# Glc(a1-4)Glc(a1-4)Glc = molecular target: Glc(a1-4)Glc(a1-4)Glc
# How it was run: as §1
# [11] = molecular target: Glc(a1-4)Glc(a1-4)Glc(a1-4)Glc
# How it was run: as §1
# [12] = molecular target: Glc(a1-4)Glc(a1-4)Glc(a1-4)Glc(a1-4)Glc
# How it was run: as §1
# [13] = molecular target: Glc(a1-4)Glc(a1-4)Glc(a1-4)Glc(a1-4)Glc(a1-4)Glc
# How it was run: as §1
# [14] = molecular target: Glc(a1-4)Glc(a1-4)Glc(a1-4)Glc(a1-4)Glc(a1-4)Glc(a1-4)Glc
# How it was run: as §1
# [15] = molecular target: Glc(a1-4)Glc(a1-4)Glc(a1-4)Glc(a1-4)Glc(a1-4)Glc(a1-4)Glc(a1-4)Glc
# How it was run: as §1
# [16] = molecular target: Glc(a1-4)Glc(a1-4)Glc(a1-4)Glc(a1-4)Glc(a1-4)Glc(a1-4)Glc(a1-4)Glc(a1-4)Glc
# How it was run: as §1
# [17] = molecular target: Glc(a1-4)Glc(a1-4)Glc(a1-4)Glc(a1-4)Glc(a1-4)Glc(a1-4)Glc(a1-4)Glc(a1-4)Glc(a1-4)Glc
# How it was run: as §1
# [18] = molecular target: Glc(a1-4)Glc(a1-4)Glc(a1-4)Glc(a1-4)Glc(a1-4)Glc(a1-4)Glc(a1-4)Glc(a1-4)Glc(a1-4)Glc(a1-4)Glc
# How it was run: as §1
# [19] = molecular target: Glc(a1-4)Glc(a1-4)Glc(a1-4)Glc(a1-4)Glc(a1-4)Glc(a1-4)Glc(a1-4)Glc(a1-4)Glc(a1-4)Glc(a1-4)Glc(a1-4)Glc
# How it was run: as §1
# [20] = molecular target: Glc(a1-4)Glc(a1-4)Glc(a1-4)Glc(a1-4)Glc(a1-4)Glc(a1-4)Glc(a1-4)Glc(a1-4)Glc(a1-4)Glc(a1-4)Glc(a1-4)Glc(a1-4)Glc
# How it was run: as §1
# Glc(a1-6)Glc = molecular target: Glc(a1-6)Glc
# How it was run: as §1
# [21] = molecular target: Glc(a1-6)Glc(a1-4)Glc(a1-4)Glc
# How it was run: as §1
# Glc(a1-6)Glc(a1-6)Glc = molecular target: Glc(a1-6)Glc(a1-6)Glc
# How it was run: as §1
# [22] = molecular target: Glc(a1-6)Glc(a1-6)Glc(a1-6)Glc
# How it was run: as §1
# [23] = molecular target: Glc(a1-6)Glc(a1-6)Glc(a1-6)Glc(a1-6)Glc
# How it was run: as §1
# [24] = molecular target: Glc(a1-6)Glc(a1-6)Glc(a1-6)Glc(a1-6)Glc(a1-6)Glc
# How it was run: as §1
# [25] = molecular target: Glc(a1-6)Glc(a1-6)Glc(a1-6)Glc(a1-6)Glc(a1-6)Glc(a1-6)Glc
# How it was run: as §1
# [26] = molecular target: Glc(a1-6)Glc(a1-6)Glc(a1-6)Glc(a1-6)Glc(a1-6)Glc(a1-6)Glc(a1-6)Glc
# How it was run: as §1
# [27] = molecular target: Glc(a1-6)Glc(a1-6)Glc(a1-6)Glc(a1-6)Glc(a1-6)Glc(a1-6)Glc(a1-6)Glc(a1-6)Glc
# How it was run: as §1
# [28] = molecular target: Glc(a1-6)Glc(a1-6)Glc(a1-6)Glc(a1-6)Glc(a1-6)Glc(a1-6)Glc(a1-6)Glc(a1-6)Glc(a1-6)Glc
# How it was run: as §1
# [29] = molecular target: Glc(a1-6)Glc(a1-6)Glc(a1-6)Glc(a1-6)Glc(a1-6)Glc(a1-6)Glc(a1-6)Glc(a1-6)Glc(a1-6)Glc(a1-6)Glc
# How it was run: as §1
# [30] = molecular target: Glc(a1-6)Glc(a1-6)Glc(a1-6)Glc(a1-6)Glc(a1-6)Glc(a1-6)Glc(a1-6)Glc(a1-6)Glc(a1-6)Glc(a1-6)Glc(a1-6)Glc
# How it was run: as §1
# [31] = molecular target: Glc(a1-6)Glc(a1-6)Glc(a1-6)Glc(a1-6)Glc(a1-6)Glc(a1-6)Glc(a1-6)Glc(a1-6)Glc(a1-6)Glc(a1-6)Glc(a1-6)Glc(a1-6)Glc
# How it was run: as §1
binder,measurement,setting,value
B1,glycan array binding signal (z-score),GalNAc(b1-4)Gal(b1-4)Glc,-0.144
same,glycan array binding signal (z-score),[1],-0.32
same,glycan array binding signal (z-score),GalNAc(b1-4)GlcNAc,-0.135
same,glycan array binding signal (z-score),[2],-0.054
same,glycan array binding signal (z-score),[3],0.616
same,glycan array binding signal (z-score),[4],-0.136
same,glycan array binding signal (z-score),GalNAc(b1-4)GlcNAc6S,-0.117
same,glycan array binding signal (z-score),[5],-0.32
same,glycan array binding signal (z-score),GalNAc(b1-6)GalNAc,-0.194
same,glycan array binding signal (z-score),[6],-0.32
same,glycan array binding signal (z-score),GalNAc3S(b1-4)GlcNAc,-0.162
same,glycan array binding signal (z-score),GalNAc3S(b1-4)GlcNAc3S,-0.138
same,glycan array binding signal (z-score),[7],-0.255
same,glycan array binding signal (z-score),GalNAc4S6S(b1-4)GlcNAc,-0.168
same,glycan array binding signal (z-score),GalNAc6S(b1-4)GlcNAc,-0.003
same,glycan array binding signal (z-score),Glc(a1-2)Glc,-0.32
same,glycan array binding signal (z-score),[8],-0.32
same,glycan array binding signal (z-score),Glc(a1-3)Glc,-0.32
same,glycan array binding signal (z-score),[9],-0.32
same,glycan array binding signal (z-score),[10],0.933
same,glycan array binding signal (z-score),Glc(a1-4)Glc,0.008
same,glycan array binding signal (z-score),Glc(a1-4)Glc(a1-4)Glc,-0.031
same,glycan array binding signal (z-score),[11],-0.188
same,glycan array binding signal (z-score),[12],-0.32
same,glycan array binding signal (z-score),[13],1.32
same,glycan array binding signal (z-score),[14],1.03
same,glycan array binding signal (z-score),[15],-0.32
same,glycan array binding signal (z-score),[16],0.066
same,glycan array binding signal (z-score),[17],-0.32
same,glycan array binding signal (z-score),[18],-0.32
same,glycan array binding signal (z-score),[19],0.162
same,glycan array binding signal (z-score),[20],-0.32
same,glycan array binding signal (z-score),Glc(a1-6)Glc,1.7
same,glycan array binding signal (z-score),[21],-0.32
same,glycan array binding signal (z-score),Glc(a1-6)Glc(a1-6)Glc,-0.206
same,glycan array binding signal (z-score),[22],-0.198
same,glycan array binding signal (z-score),[23],-0.32
same,glycan array binding signal (z-score),[24],-0.32
same,glycan array binding signal (z-score),[25],1.51
same,glycan array binding signal (z-score),[26],0.258
same,glycan array binding signal (z-score),[27],1.32
same,glycan array binding signal (z-score),[28],-0.32
same,glycan array binding signal (z-score),[29],-0.32
same,glycan array binding signal (z-score),[30],0.548
same,glycan array binding signal (z-score),[31],2.19
